Several values for one entry are separate records, joined by “and”; a condition that tells them apart may be missing. Identical values can stand only once. The campaign covered roughly 420,000 compounds. About 50,000 (12%) were called active. The shares of active, inactive and inconclusive entries below differ from those in the screen. The call rests on the fitted dose curve; in most records, active means well fitted inhibition curve with a large enough effect; inconclusive means small, poorly fitted or top-dose-only effect; inactive means flat fitted curve, though single readings scatter. Potencies beside an inconclusive call are fits to weak or partial responses and may not hold up.
experiment: qHTS for Inhibitors of human tyrosyl-DNA phosphodiesterase 1 (TDP1): qHTS in cells in presence of CPT; conditions: chicken DT40 Tdp1-/-;hTDP1 cells + 20 nM CPT, ATP luminescence, 48 h; series mostly up to 46.2 µM; further: nearly all actives have a fitted effect of over 55% in size
Procedure, shortened: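 Chicken DT40 Tdp1-/- cells complemented with human TDP1, 400 cells/well, exposed to compounds plus 20 nM camptothecin for at least 48 h at 37 C; viability read as ATP content by CellTiter-Glo luminescence.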
Potency means the concentration at half of the fitted maximal effect; tags describe the fitted curve by direction and shape.

Compound	Potency
COc1cc(=O)n2c(c1C(=O)NCc1ccc3c(c1)OCO3)CCN(C(=O)c1cccc(F)c1)CC2	inactive
Clc1ccc(-c2nnc(-c3ccccc3)nc2N2CCSCC2)cc1	active: 16.4 µM
Cc1cc(C)n2nc3nc(N4CCCC4)nc(-c4ccccc4)c3c2n1	inactive
COc1cccc(-c2cnc(C(O)c3cc(F)cc(Cl)c3)[nH]2)c1 (configuration not stated)	inconclusive: 29.1 µM [inhibitor, single point]
Cc1ccccc1N1CCN(Cc2c(C#N)c3ccccc3n2C)CC1	active: 18.4 µM
Cc1c(C(=O)Nc2ccncc2)oc2ccccc12	active: 20.6 µM
COc1cccc(NC(=O)C2(C)CCCN2C(=O)C(C)C)c1 (configuration not stated)	inactive
CCOc1cc(S(=O)(=O)N(Cc2ccccc2)Cc2ccccc2)c(OCC)cc1-n1cnnn1	inconclusive: 20.6 µM [inhibitor, single point]
O=C(COC(=O)c1cccnc1SCC(=O)NCc1ccccc1)NCc1ccccc1	active: 23.1 µM
CCOC(=O)c1nn(-c2ccc(F)cc2)cc1O	inactive
COc1cnc(-c2ccccn2)nc1Sc1c(Cl)cccc1Cl	active: 0.651 µM
O=C(c1cccnc1)N(Cc1ccccc1)c1ccccc1	inconclusive: 29.1 µM [inhibitor, single point]
Cc1c(C(=O)Nc2ccccc2)csc1-c1ccccc1	inactive
CCCCNC(=O)CSc1nc(CCC)nc2ccccc12	active: 23.1 µM
COc1cccc(NC(=O)C(C)(C)C)c1	inactive
COc1ccc(NC(=O)COc2cccc3c2CCN(Cc2cccnc2)C3=O)c(OC)c1	active: 11.6 µM
COC(=O)C(NC(C)=O)(Nc1nc2c(C)cc(C)cc2s1)C(F)(F)F (configuration not stated)	inconclusive: 35.5 µM [inhibitor, single point]
CCc1nn2c(=O)cc(CSCC(=O)Nc3ccccc3F)nc2s1	inactive
Cc1ccccc1C(=O)Oc1ccccc1C(=O)N1CCOCC1	inactive
CC(C)C(=O)Nc1nc2c(ncn2C2CC(O)C(CO)O2)c(=O)[nH]1 (configuration not stated)	inactive
COc1cccc(CNC(=O)NCc2noc3ccc(C)cc23)c1	inconclusive: 29.1 µM [inhibitor, single point]
CCC(C)NC(=O)COC(=O)c1ccccc1OCC(=O)Nc1ccc(Br)cc1 (configuration not stated)	inconclusive: 20.6 µM [inhibitor, partial curve]
COC(=O)c1ccc(C(=O)OC)c(NC(=O)CCC(=O)O)c1	inactive
CCOCCCNC(=O)c1cc(Nc2ccc(OC)cc2OC)nc2ccccc12	inconclusive: 23.1 µM [inhibitor, single point]
CC(C)(C)c1nn(-c2ccccc2)c2[nH]c(=O)c(CNCc3ccc4c(c3)OCO4)cc12	active: 18.4 µM
CCOc1ccc(N(CC)S(=O)(=O)N2CCCC(C(=O)NCc3ccc(SC)cc3)C2)cc1 (configuration not stated)	active: 23.1 µM

Compound	Potency
COCCN1C(=O)c2cc(C(=O)Nc3ccc(C)c(F)c3)ccc2C1Nc1ccc(C)c(F)c1 (configuration not stated)	inconclusive: 18.4 µM [inhibitor, single point]
Cc1ccc(CC(=O)Nc2nnc(-c3ccc(F)cc3)o2)c(C)c1	inconclusive: 23.1 µM [inhibitor, single point]
COc1ccccc1C(CNC(=O)C(CCSC)NC(=O)c1ccccc1Cl)N1CCCC1 (configuration not stated)	inconclusive: 29.1 µM [inhibitor, single point]
Cc1ccc(NC(=O)CN2C=NS(=O)(=O)c3ccccc32)c(C)c1	inactive
CCN1CCN(CCNC(=O)c2ccc(/C=C3/Sc4ccccc4N(Cc4cccc(Cl)c4)C3=O)cc2)CC1	active: 18.4 µM
O=C(Nc1ccccc1)/C(=C\c1ccco1)NC(=O)c1ccco1	inactive
O=C(CN1C(=O)C2CC=CCC2C1=O)N1CCN(c2ccc([N+](=O)[O-])cc2)CC1 (configuration not stated)	inconclusive: 5.8 µM [inhibitor, partial curve, poor fit]
CC(=O)c1cccc(NC(=O)CC2Oc3ccc(C)cc3NC2=O)c1 (configuration not stated)	inconclusive: 29.1 µM [inhibitor, single point]
O=C(NC1CCN(Cc2ccc3ccccc3c2)CC1)c1ccccc1	active: 18.4 µM
Cc1occc1-c1nnc(SCC(=O)Nc2ccccc2)n1Cc1ccccc1	inactive
Cc1ccc(SCC(=O)OCC(=O)N(C)CC(=O)Nc2ccc(F)cc2)cc1C	inactive
O=C1CCc2cc(NS(=O)(=O)c3ccc([N+](=O)[O-])cc3)cc3c2N1CC3	inactive
O=C(NCC1COc2ccccc2O1)c1cccc(S(=O)(=O)NCc2ccccc2)c1 (configuration not stated)	inconclusive: 20.6 µM [inhibitor, single point]
COc1ccc(NC(=O)NCCCCc2ccccc2)cc1OC	inconclusive: 29.1 µM [inhibitor, single point]
NC(COCc1ccccc1)c1csc(Nc2ccc(C(F)(F)F)cn2)n1 (configuration not stated)	inconclusive: 18.4 µM [inhibitor, single point]
N#Cc1nc(-c2ccco2)oc1N1CCN(c2cccc(Cl)c2)CC1	inconclusive: 25.9 µM [inhibitor, single point]
COC(=O)[C@@]1(Cc2ccc(F)cc2)[C@H]2c3cc(C(=O)N4CCCC4)n(CCc4ccccn4)c3C[C@H]2CN1C(=O)c1ccccc1	inconclusive: 29.1 µM [inhibitor, single point]
CC(Sc1nc(N(C)C)nc(N2CCOCC2)n1)C(=O)Nc1ccccc1 (configuration not stated)	inactive
COc1ccc(NC(=O)Nc2nnc(N3CCCCCC3)s2)c(OC)c1	inconclusive: 29.1 µM [inhibitor, single point]
Cc1cccc(CNc2nc(-c3ccoc3)nc3ccccc23)c1	inconclusive: 25.9 µM [inhibitor, single point]
CCC(C(=O)OCC(=O)Nc1cc(Cl)ccc1Cl)c1ccccc1 (configuration not stated)	inactive
COc1ccc(NC(=O)CN2C(=O)COc3ccc(S(=O)(=O)N4CCOCC4)cc32)cc1Cl	inconclusive: 20.6 µM [inhibitor, single point] and inconclusive: 23.1 µM [inhibitor, single point]
Cn1nnnc1Sc1c(Cl)cccc1[N+](=O)[O-]	inactive
Fc1ccccc1CNc1cc(Cl)cc(Cl)c1	inconclusive: 18.4 µM [inhibitor, single point]
CCCn1c(N)c(C(=O)COC(=O)COc2ccc(Cl)c(C)c2)c(=O)n(C)c1=O	inactive
O=C(Nc1ccccc1)c1ccc(=O)n(Cc2cccc(Cl)c2)c1	inactive

Compound	Potency
Cc1ccccc1NC(=O)CSC1=C(C#N)C(c2ccsc2)CC(=O)N1 (configuration not stated)	inconclusive: 29.1 µM [inhibitor, single point]
O=c1oc2ccccc2c(O)c1C=Nc1cccnc1	inactive
Clc1ccc(Cn2c(CN3CCCC3)nc3ccccc32)cc1	inconclusive: 11.4 µM [inhibitor, single point]
COc1cc2c(cc1OC)C(C)N(Cc1ccc3c(c1)OCO3)CC2 (configuration not stated)	inconclusive: 16.4 µM [inhibitor, single point]
CCCc1cc(=O)oc2c(C)c(OC(C)C(=O)NCc3ccccn3)ccc12 (configuration not stated)	inconclusive: 29.1 µM [inhibitor, single point]
COC(=O)c1cccc(NC(=O)Cn2cnc3c2c(=O)n(C)c(=O)n3C)c1	inconclusive: 5.17 µM [inhibitor, partial curve]
Cc1ccccc1NC(=O)COc1cccc2c1CCNC2=O	inconclusive: 16.4 µM [inhibitor, partial curve]
CC(=O)NC(C)C(=O)OCC(=O)Nc1ccc(Br)cc1 (configuration not stated)	inactive
Cc1cccc(NC(=O)c2cc(NC(=O)c3ccco3)ccc2Cl)n1	inactive
COc1cc(Br)c(C(C)NC(=O)c2ccccc2)cc1OC (configuration not stated)	inconclusive: 29.1 µM [inhibitor, single point]
CCN(CCCNC(=O)CSc1cc(=O)n(CC)c2ccccc12)c1ccccc1	inconclusive: 29.1 µM [inhibitor, single point]
COc1ccc(-c2nc3ccc(C)cn3c2Cc2ccsc2)cc1OC	active: 8.2 µM
N#CC1=C(SCC(=O)NCc2ccccc2)NC(=O)CC1c1ccco1 (configuration not stated)	inconclusive: 20.6 µM [inhibitor, single point]
COc1ccc2cc(Br)ccc2c1CC(=O)NC(C)C	inactive
Cc1cc[n+](C2CCCCC2)c2ccccc12	inconclusive: 28.2 µM [inhibitor, single point]
CCc1ccc(S(=O)(=O)/N=C2\C=C(NS(=O)(=O)c3ccccc3)C(=O)c3ccccc32)cc1	inconclusive: 18.4 µM [inhibitor, single point]
CCC(C(=O)N1CCC(C(N)=O)CC1)n1nc(C)n2c(cc3occc32)c1=O (configuration not stated)	inactive
N#CC1=C(N)Oc2n[nH]c(-c3cccs3)c2C1c1ccoc1 (configuration not stated)	inconclusive: 16.4 µM [inhibitor, partial curve, poor fit]
CN(CC(=O)Nc1cccc(Cl)c1)S(=O)(=O)c1ccc2[nH]c(=O)oc2c1	inactive
COc1ccccc1CCNC(=O)Cc1cccs1	inactive
CCc1ccc(NC(=O)Nc2cn(C)c(=O)c3ccccc23)cc1	active: 20.6 µM
CCOC(=O)c1cc2cc3ccccc3cc2oc1=O	inactive
C/C(=N\NC(=O)c1ccn(C)n1)c1cccc(NC(=O)c2ccc(C)s2)c1	inconclusive: 29.1 µM [inhibitor, single point]
O=C1CC(C(=O)N2CCC(N3CCC(C(=O)NC4CC4)CC3)CC2)c2ccccc21 (configuration not stated)	inactive
CCN(CC(=O)NCc1ccc(F)cc1)CC(O)COCc1cccc(OC)c1 (configuration not stated)	inconclusive: 32.6 µM [inhibitor, single point]
